# Test results reported in article PMC9911399, “Two distinct binding modes provide the RNA-binding protein RbFox with extraordinary sequence specificity”.
# Residue numbers refer to the chain shown, from its start. The list shows a part of the results.
# T1: RBFOX1 RRM RbFoxmut (Fox-RRM*) (Homo sapiens, UniProt Q9NWB1 109-208, R118D;E147R;N151S;E152T)
# T1 sequence: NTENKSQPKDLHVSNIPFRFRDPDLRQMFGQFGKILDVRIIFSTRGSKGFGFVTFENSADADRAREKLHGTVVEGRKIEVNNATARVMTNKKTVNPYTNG
# B1: AGCUGAU (DNA:RNA)
# RNA: GGGAGACCGGAAUUCAGAUUGUCCAGCUGAUUUAAAUCCCGUCGUAGCCACCA
# DNA 1: CAATCTGAATTCCGGTCTCCC
# DNA 2: TGGTGGCTACGACGGGATT
# B2: GGCUAUG (DNA:RNA)
# RNA: B1 RNA with A25G, G29A, A30U, U31G
# DNA 1: CAATCTGAATTCCGGTCTCCC
# DNA 2: TGGTGGCTACGACGGGATT
# B3: GAGGAAU (DNA:RNA)
# RNA: B1 RNA with A25G, G26A, C27G, U28G, G29A
# DNA 1: CAATCTGAATTCCGGTCTCCC
# DNA 2: TGGTGGCTACGACGGGATT
# B4: AUAGCAU (DNA:RNA)
# RNA: B1 RNA with G26U, C27A, U28G, G29C
# DNA 1: CAATCTGAATTCCGGTCTCCC
# DNA 2: TGGTGGCTACGACGGGATT
# B5: UACUCCU (DNA:RNA)
# RNA: B1 RNA with A25U, G26A, G29C, A30C
# DNA 1: CAATCTGAATTCCGGTCTCCC
# DNA 2: TGGTGGCTACGACGGGATT
# B6: CCCGAUC (DNA:RNA)
# RNA: B1 RNA with A25C, G26C, U28G, G29A, A30U, U31C
# DNA 1: CAATCTGAATTCCGGTCTCCC
# DNA 2: TGGTGGCTACGACGGGATT
# B7: GGAAGCC (DNA:RNA)
# RNA: B1 RNA with A25G, C27A, U28A, A30C, U31C
# DNA 1: CAATCTGAATTCCGGTCTCCC
# DNA 2: TGGTGGCTACGACGGGATT
# B8: GAUCCAC (DNA:RNA)
# RNA: B1 RNA with A25G, G26A, C27U, U28C, G29C, U31C
# DNA 1: CAATCTGAATTCCGGTCTCCC
# DNA 2: TGGTGGCTACGACGGGATT
# B9: AGACUAG (DNA:RNA)
# RNA: B1 RNA with C27A, U28C, G29U, U31G
# DNA 1: CAATCTGAATTCCGGTCTCCC
# DNA 2: TGGTGGCTACGACGGGATT
# B10: UCUCUUC (DNA:RNA)
# RNA: GGGAGACCGGAAUUCAGAUUGUCCUCUCUUCUUAAAUCCCGUCGUAGCCACCA
# DNA 1: CAATCTGAATTCCGGTCTCCC
# DNA 2: TGGTGGCTACGACGGGATT
# B11: AGCGGGG (DNA:RNA)
# RNA: B1 RNA with U28G, A30G, U31G
# DNA 1: CAATCTGAATTCCGGTCTCCC
# DNA 2: TGGTGGCTACGACGGGATT
# B12: GUCCAGA (DNA:RNA)
# RNA: B1 RNA with A25G, G26U, U28C, G29A, A30G, U31A
# DNA 1: CAATCTGAATTCCGGTCTCCC
# DNA 2: TGGTGGCTACGACGGGATT
# B13: UGGGCUU (DNA:RNA)
# RNA: B1 RNA with A25U, C27G, U28G, G29C, A30U
# DNA 1: CAATCTGAATTCCGGTCTCCC
# DNA 2: TGGTGGCTACGACGGGATT
# B14: UACAACA (DNA:RNA)
# RNA: B1 RNA with A25U, G26A, U28A, G29A, A30C, U31A
# DNA 1: CAATCTGAATTCCGGTCTCCC
# DNA 2: TGGTGGCTACGACGGGATT
# B15: UAUAUGA (DNA:RNA)
# RNA: B10 RNA with C26A, C28A, U30G, C31A
# DNA 1: CAATCTGAATTCCGGTCTCCC
# DNA 2: TGGTGGCTACGACGGGATT
# B16: CUCGAGA (DNA:RNA)
# RNA: B1 RNA with A25C, G26U, U28G, G29A, A30G, U31A
# DNA 1: CAATCTGAATTCCGGTCTCCC
# DNA 2: TGGTGGCTACGACGGGATT
# B17: CUCAUCC (DNA:RNA)
# RNA: B10 RNA with U25C, C26U, U27C, C28A, U30C
# DNA 1: CAATCTGAATTCCGGTCTCCC
# DNA 2: TGGTGGCTACGACGGGATT
# B18: UCGAAAG (DNA:RNA)
# RNA: B10 RNA with U27G, C28A, U29A, U30A, C31G
# DNA 1: CAATCTGAATTCCGGTCTCCC
# DNA 2: TGGTGGCTACGACGGGATT
# B19: CAGCCUG (DNA:RNA)
# RNA: B10 RNA with U25C, C26A, U27G, U29C, C31G
# DNA 1: CAATCTGAATTCCGGTCTCCC
# DNA 2: TGGTGGCTACGACGGGATT
# B20: AUGCUUC (DNA:RNA)
# RNA: B10 RNA with U25A, C26U, U27G
# DNA 1: CAATCTGAATTCCGGTCTCCC
# DNA 2: TGGTGGCTACGACGGGATT
# Molecular target: T1, RBFOX1 RRM RbFoxmut (Fox-RRM*)
# Test: EMSA; HiTS-Eq, 1 nM pool, 10 min; buffer printed only for the single-RNA assays: 10 mM Tris pH 7.5, 150 mM NaCl, 3.4 mM EDTA, 0.001% NP-40, 30 C
# Conditions: tags: His6 N-terminal (pET28a); label: 5' 32P
# Outline: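 Purified wild-type or mutant RbFox RRM at increasing concentrations was equilibrated with 1 nM of 5′-radiolabelled RNA carrying 7 randomized nucleotides for 10 min in 50 µL. Unbound RNA was separated by 8% native PAGE and sequenced. Relative association constants came from read-count changes of each RNA species compared with the control reaction, normalised to the cognate motif.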
row,Binder,binding signal
1,B1,0.112 KA relative to UGCAUGU
2,B2,0.405 KA relative to UGCAUGU
3,B3,0.12 KA relative to UGCAUGU
4,B4,0.111 KA relative to UGCAUGU
5,B5,0.066 KA relative to UGCAUGU
6,B6,0.0576 KA relative to UGCAUGU
7,B7,0.066 KA relative to UGCAUGU
8,B8,0.0722 KA relative to UGCAUGU
9,B9,0.0893 KA relative to UGCAUGU
10,B10,0.0532 KA relative to UGCAUGU
11,B11,0.0911 KA relative to UGCAUGU
12,B12,0.101 KA relative to UGCAUGU
13,B13,0.0882 KA relative to UGCAUGU
14,B14,0.0754 KA relative to UGCAUGU
15,B15,0.0696 KA relative to UGCAUGU
16,B16,0.0759 KA relative to UGCAUGU
17,B17,0.0887 KA relative to UGCAUGU
18,B18,0.0799 KA relative to UGCAUGU
19,B19,0.094 KA relative to UGCAUGU
20,B20,0.119 KA relative to UGCAUGU
